Patent US11198713B2, “Agents modulating beta-catenin functions and methods thereof” (FOG PHARMACEUTICALS, INC., priority 2017, dated 2021)
Not every detail of the peptide structures is certain; ends, links or a residue may be inferred. Numbered stars: 1 amine (or outer) side, 2 acyl side, 3 side chain; on linkers, the order of the positions; unused ones are H or OH. Bridge positions count the residues as written; N and C are the ends. Square brackets hold non-standard residues; d marks the D form. Peptide text beside a SMILES is read from it. X15 = O=C(C1(N[*:1])CN(CC=[*:3])C1)[*:2]; R8 = C=CCCCCCC[C@@](C)(N)C(=O)O; S8 = C=CCCCCCC[C@](C)(N)C(=O)O

Tested on: TCF/LEF Luciferase reporter HEK293 cell lines
Assay: TCF/LEF reporter assay
Assay type: cell-based
Conditions: 10 μM, Table 2

CC[C@H](C)[C@@H]1NC(=O)[C@H](Cc2c[nH]cn2)NC(=O)[C@H](C)NC(=O)[C@H](CC(N)=O)NC(=O)[C@H](CC(C)C)NC(=O)[C@H]([C@@H](C)CC)NC(=O)[C@](C)(NC(=O)[C@H](C)NC(C)=O)CCCCCCC=CCOC(=O)N2CC[C@@](C(=O)N[C@@H](CCCNC(=N)N)C(=O)N[C@H](C(=O)N[C@@H](Cc3c[nH]c4ccccc34)C(N)=O)C(C)C)(C2)NC1=O [FP0218c, Ac-A-R8-I-L-N-A-H-I-MB-R-V-W-NH2]
TCF/LEF Reporter Inhibition at 10 μM: 41%

CC[C@H](C)[C@@H]1NC(=O)[C@H](Cc2c[nH]cn2)NC(=O)[C@H](C)NC(=O)[C@H]([C@@H](C)O)NC(=O)[C@H](CC(C)C)NC(=O)[C@H]([C@@H](C)CC)NC(=O)[C@](C)(NC(=O)[C@H](C)NC(C)=O)CCCCCCC=CCOC(=O)N2CC[C@@](C(=O)N[C@@H](CCCNC(=N)N)C(=O)N[C@H](C(=O)N[C@@H](Cc3c[nH]c4ccccc34)C(N)=O)C(C)C)(C2)NC1=O [FP0219c, Ac-A-R8-I-L-T-A-H-I-MB-R-V-W-NH2]
TCF/LEF Reporter Inhibition at 10 μM: 20%

CC[C@H](C)[C@@H]1NC(=O)[C@H](Cc2c[nH]cn2)NC(=O)[C@H](C)NC(=O)[C@H](CC(=O)O)NC(=O)[C@H](CC(C)C)NC(=O)[C@H]([C@@H](C)CC)NC(=O)[C@](C)(NC(C)=O)CCCCCCC=CCOC(=O)N2CC[C@@](C(=O)N[C@@H](CCCNC(=N)N)C(=O)N[C@H](C(=O)N[C@@H](Cc3c[nH]c4ccccc34)C(N)=O)C(C)C)(C2)NC1=O [FP0220c, Ac-R8-I-L-D-A-H-I-MB-R-V-W-NH2]
TCF/LEF Reporter Inhibition at 10 μM: 39%

CC[C@H](C)[C@@H]1NC(=O)[C@H](Cc2c[nH]cn2)NC(=O)[C@H](C)NC(=O)[C@H](CC(N)=O)NC(=O)[C@H](CC(C)C)NC(=O)[C@H]([C@@H](C)CC)NC(=O)[C@](C)(NC(C)=O)CCCCCCC=CCOC(=O)N2CC[C@@](C(=O)N[C@@H](CCCNC(=N)N)C(=O)N[C@H](C(=O)N[C@@H](Cc3c[nH]c4ccccc34)C(N)=O)C(C)C)(C2)NC1=O [FP0221c, Ac-R8-I-L-N-A-H-I-MB-R-V-W-NH2]
TCF/LEF Reporter Inhibition at 10 μM: 38%

CC[C@H](C)[C@@H]1NC(=O)[C@H](Cc2c[nH]cn2)NC(=O)[C@H](C)NC(=O)[C@H]([C@@H](C)O)NC(=O)[C@H](CC(C)C)NC(=O)[C@H]([C@@H](C)CC)NC(=O)[C@](C)(NC(C)=O)CCCCCCC=CCOC(=O)N2CC[C@@](C(=O)N[C@@H](CCCNC(=N)N)C(=O)N[C@H](C(=O)N[C@@H](Cc3c[nH]c4ccccc34)C(N)=O)C(C)C)(C2)NC1=O [FP0222c, Ac-R8-I-L-T-A-H-I-MB-R-V-W-NH2]
TCF/LEF Reporter Inhibition at 10 μM: 22%

CC[C@H](C)[C@@H]1NC(=O)C2(NC(=O)[C@H](C)NC(=O)[C@@H]3CCCN3C(C)=O)CN(CC=CCCCCCC[C@@](C)(C(=O)N[C@@H](CCCNC(=N)N)C(=O)N[C@H](C(=O)N[C@@H](Cc3c[nH]c4ccccc34)C(N)=O)C(C)C)NC(=O)[C@H](C(C)C)NC(=O)[C@H](Cc3c[nH]cn3)NC(=O)[C@H](C)NC(=O)[C@H](CC(=O)O)NC(=O)[C@H](CC(C)C)NC1=O)C2 [FP0223a, Ac-P-A-MA-I-L-D-A-H-V-S8-R-V-W-NH2] (Ac-PA[X15]ILDAHV[S8]RVW-NH2; staple 3-10)
TCF/LEF Reporter Inhibition at 10 μM: 18%

CC[C@H](C)[C@@H]1NC(=O)[C@H](Cc2c[nH]cn2)NC(=O)[C@H](C)NC(=O)[C@H](CC(=O)O)NC(=O)[C@H](CC(C)C)NC(=O)[C@H]([C@@H](C)CC)NC(=O)[C@](C)(NC(=O)[C@H](C)NC(=O)[C@@H]2CCCN2C(C)=O)CCCCCCC=CCN2CC(C(=O)N[C@@H](CCCNC(=N)N)C(=O)N[C@H](C(=O)N[C@@H](Cc3c[nH]c4ccccc34)C(N)=O)C(C)C)(C2)NC1=O [FP0224a, Ac-P-A-R8-I-L-D-A-H-I-MA-R-V-W-NH2] (Ac-PA[R8]ILDAHI[X15]RVW-NH2; staple 3-10)
TCF/LEF Reporter Inhibition at 10 μM: 15%

CC[C@H](C)[C@@H]1NC(=O)[C@H](Cc2c[nH]cn2)NC(=O)[C@H](C)NC(=O)[C@H](Cc2c(F)c(F)c(F)c(F)c2F)NC(=O)[C@H](CC(C)C)NC(=O)[C@H]([C@@H](C)CC)NC(=O)C2(NC(=O)[C@H](C)NC(C)=O)CN(C2)C(=O)OCC=CCCCCCC[C@@](C)(C(=O)N[C@@H](CCCNC(=N)N(C)C)C(=O)N[C@H](C(=O)N[C@@H](Cc2c[nH]c3ccccc23)C(N)=O)C(C)C)NC1=O [FP0243c, Ac-A-MA-I-L-pff-A-H-I-S8-ADMA-V-W-NH2]
TCF/LEF Reporter Inhibition at 10 μM: 35%

CC[C@H](C)[C@@H]1NC(=O)[C@H](Cc2c[nH]cn2)NC(=O)[C@H](C)NC(=O)[C@H](Cc2c(F)c(F)c(F)c(F)c2F)NC(=O)[C@H](CC(C)C)NC(=O)[C@H]([C@@H](C)CC)NC(=O)C2(NC(=O)[C@H](C)NC(C)=O)CN(C2)C(=O)OCC=CCCCCCC[C@@](C)(C(=O)N[C@@H](Cc2ccc(O)cc2)C(=O)N[C@H](C(=O)N[C@@H](Cc2c[nH]c3ccccc23)C(N)=O)C(C)C)NC1=O [FP0244c, Ac-A-MA-I-L-pff-A-H-I-S8-Y-V-W-NH2]
TCF/LEF Reporter Inhibition at 10 μM: 68%

CC[C@H](C)[C@@H]1NC(=O)[C@H](Cc2c[nH]cn2)NC(=O)[C@H](C)NC(=O)[C@H](CCCNC(=N)N(C)C)NC(=O)[C@H](CC(C)C)NC(=O)[C@H]([C@@H](C)CC)NC(=O)C2(NC(=O)[C@H](C)NC(C)=O)CN(C2)C(=O)OCC=CCCCCCC[C@@](C)(C(=O)N[C@@H](CCCNC(=N)N(C)C)C(=O)N[C@H](C(=O)N[C@@H](Cc2c[nH]c3ccccc23)C(N)=O)C(C)C)NC1=O [FP0247c, Ac-A-MA-I-L-ADMA-A-H-I-S8-ADMA-V-W-NH2]
TCF/LEF Reporter Inhibition at 10 μM: 0%

CC[C@H](C)[C@@H]1NC(=O)[C@H](Cc2c[nH]cn2)NC(=O)[C@H](C)NC(=O)[C@H](CCCNC(=NC)NC)NC(=O)[C@H](CC(C)C)NC(=O)[C@H]([C@@H](C)CC)NC(=O)[C@](C)(NC(=O)[C@H](C)NC(C)=O)CCCCCCC=CCOC(=O)N2CC(C(=O)N[C@@H](CCCNC(=N)N(C)C)C(=O)N[C@H](C(=O)N[C@@H](Cc3c[nH]c4ccccc34)C(N)=O)C(C)C)(C2)NC1=O [FP0249c, Ac-A-R8-I-L-SDMA-A-H-I-MA-ADMA-V-W-NH2]
TCF/LEF Reporter Inhibition at 10 μM: 0%

CC[C@H](C)[C@@H]1NC(=O)[C@H](Cc2c[nH]cn2)NC(=O)[C@H](C)NC(=O)[C@H](CCCNC(=N)N(C)C)NC(=O)[C@H](CC(C)C)NC(=O)[C@H]([C@@H](C)CC)NC(=O)C2(NC(=O)[C@H](C)NC(C)=O)CN(C2)C(=O)OCC=CCCCCCC[C@@](C)(C(=O)N[C@@H](CCCNC(=NC)NC)C(=O)N[C@H](C(=O)N[C@@H](Cc2c[nH]c3ccccc23)C(N)=O)C(C)C)NC1=O [FP0250c, Ac-A-MA-I-L-ADMA-A-H-I-S8-SDMA-V-W-NH2]
TCF/LEF Reporter Inhibition at 10 μM: 0%

CC[C@H](C)[C@@H]1NC(=O)[C@H](Cc2c[nH]cn2)NC(=O)[C@H](C)NC(=O)[C@H](CC(N)=O)NC(=O)[C@H](CC(C)C)NC(=O)[C@H]([C@@H](C)CC)NC(=O)[C@](C)(NC(=O)[C@H](C)NC(C)=O)CCCCCCC=CCOC(=O)N2CC(C(=O)N[C@@H](Cc3c(F)c(F)c(F)c(F)c3F)C(=O)N[C@H](C(=O)N[C@@H](Cc3c[nH]c4ccccc34)C(N)=O)C(C)C)(C2)NC1=O [FP0253c, Ac-A-R8-I-L-N-A-H-I-MA-pff-V-W-NH2]
TCF/LEF Reporter Inhibition at 10 μM: 63%

CC[C@H](C)[C@@H]1NC(=O)[C@H](Cc2c[nH]cn2)NC(=O)[C@H](C)NC(=O)[C@H](Cc2c(F)c(F)c(F)c(F)c2F)NC(=O)[C@H](CC(C)C)NC(=O)[C@H]([C@@H](C)CC)NC(=O)C2(NC(=O)[C@H](C)NC(C)=O)CN(C2)C(=O)OCC=CCCCCCC[C@@](C)(C(=O)N[C@@H](C)C(=O)N[C@H](C(=O)N[C@@H](Cc2c[nH]c3ccccc23)C(N)=O)C(C)C)NC1=O [FP0264c, Ac-A-MA-I-L-pff-A-H-I-S8-A-V-W-NH2]
TCF/LEF Reporter Inhibition at 10 μM: 59%

CC[C@H](C)[C@@H]1NC(=O)[C@H](Cc2c[nH]cn2)NC(=O)[C@H](C)NC(=O)[C@H](Cc2ccc(O)cc2)NC(=O)[C@H](CC(C)C)NC(=O)[C@H]([C@@H](C)CC)NC(=O)[C@](C)(NC(=O)[C@H](C)NC(C)=O)CCCCCCC=CCOC(=O)N2CC(C(=O)N[C@@H](Cc3ccc(O)cc3)C(=O)N[C@H](C(=O)N[C@@H](Cc3c[nH]c4ccccc34)C(N)=O)C(C)C)(C2)NC1=O [FP0265c, Ac-A-R8-I-L-Y-A-H-I-MA-Y-V-W-NH2]
TCF/LEF Reporter Inhibition at 10 μM: 64%

CC[C@H](C)[C@@H]1NC(=O)[C@H](Cc2c[nH]cn2)NC(=O)[C@H](C)NC(=O)[C@H](CC(N)=O)NC(=O)[C@H](CC(C)C)NC(=O)[C@H]([C@@H](C)CC)NC(=O)C2(NC(=O)[C@H](C)NC(C)=O)CN(C2)C(=O)OCC=CCCCCCC[C@@](C)(C(=O)N[C@@H](CCCNC(=N)N(C)C)C(=O)N[C@H](C(=O)N[C@@H](Cc2c[nH]c3ccccc23)C(N)=O)C(C)C)NC1=O [FP0268c, Ac-A-MA-I-L-N-A-H-I-S8-ADMA-V-W-NH2]
TCF/LEF Reporter Inhibition at 10 μM: 0%

CC[C@H](C)[C@@H]1NC(=O)[C@H](Cc2c[nH]cn2)NC(=O)[C@H](C)NC(=O)[C@H](CCCNC(=N)N(C)C)NC(=O)[C@H](CC(C)C)NC(=O)[C@H]([C@@H](C)CC)NC(=O)[C@](C)(NC(=O)[C@H](C)NC(C)=O)CCCCCCC=CCOC(=O)N2CC(C(=O)N[C@@H](CC(N)=O)C(=O)N[C@H](C(=O)N[C@@H](Cc3c[nH]c4ccccc34)C(N)=O)C(C)C)(C2)NC1=O [FP0269c, Ac-A-R8-I-L-ADMA-A-H-I-MA-N-V-W-NH2]
TCF/LEF Reporter Inhibition at 10 μM: 0%

CC[C@H](C)[C@@H]1NC(=O)[C@H](Cc2c[nH]cn2)NC(=O)[C@H](C)NC(=O)[C@H](CCCNC(=N)N(C)C)NC(=O)[C@H](CC(C)C)NC(=O)[C@H]([C@@H](C)CC)NC(=O)C2(NC(=O)[C@H](C)NC(C)=O)CN(C2)C(=O)OCC=CCCCCCC[C@@](C)(C(=O)N[C@@H](CC(N)=O)C(=O)N[C@H](C(=O)N[C@@H](Cc2c[nH]c3ccccc23)C(N)=O)C(C)C)NC1=O [FP0270c, Ac-A-MA-I-L-ADMA-A-H-I-S8-N-V-W-NH2]
TCF/LEF Reporter Inhibition at 10 μM: 0%

CC[C@H](C)[C@@H]1NC(=O)[C@H](Cc2c[nH]cn2)NC(=O)[C@H](C)NC(=O)[C@H](CC(N)=O)NC(=O)[C@H](CC(C)C)NC(=O)[C@H]([C@@H](C)CC)NC(=O)C2(NC(=O)[C@H](C)NC(C)=O)CN(C2)C(=O)OCC=CCCCCCC[C@@](C)(C(=O)N[C@@H](CCCNC(=NC)NC)C(=O)N[C@H](C(=O)N[C@@H](Cc2c[nH]c3ccccc23)C(N)=O)C(C)C)NC1=O [FP0271c, Ac-A-MA-I-L-N-A-H-I-S8-SDMA-V-W-NH2]
TCF/LEF Reporter Inhibition at 10 μM: 0%
